Data reported in the supplement of paper PMC3334620.
Whole data set: some 33,000 sequences, median “E-score (-0.5 to 0.5)” near -0.012, cut for the highest 2% near 0.29. The list shows a part of the results.

The sequences below were run against T1, Ybr033w (UniProt P38073) (assay: PBM E-score (8-mer binding enrichment) (E-score (-0.5 to 0.5)); higher = stronger / more preferred TF binding; most listed sequences are background and not binding sites). Conditions: protein concentration: 200 nM; construct: GST-full length.
T1 sequence: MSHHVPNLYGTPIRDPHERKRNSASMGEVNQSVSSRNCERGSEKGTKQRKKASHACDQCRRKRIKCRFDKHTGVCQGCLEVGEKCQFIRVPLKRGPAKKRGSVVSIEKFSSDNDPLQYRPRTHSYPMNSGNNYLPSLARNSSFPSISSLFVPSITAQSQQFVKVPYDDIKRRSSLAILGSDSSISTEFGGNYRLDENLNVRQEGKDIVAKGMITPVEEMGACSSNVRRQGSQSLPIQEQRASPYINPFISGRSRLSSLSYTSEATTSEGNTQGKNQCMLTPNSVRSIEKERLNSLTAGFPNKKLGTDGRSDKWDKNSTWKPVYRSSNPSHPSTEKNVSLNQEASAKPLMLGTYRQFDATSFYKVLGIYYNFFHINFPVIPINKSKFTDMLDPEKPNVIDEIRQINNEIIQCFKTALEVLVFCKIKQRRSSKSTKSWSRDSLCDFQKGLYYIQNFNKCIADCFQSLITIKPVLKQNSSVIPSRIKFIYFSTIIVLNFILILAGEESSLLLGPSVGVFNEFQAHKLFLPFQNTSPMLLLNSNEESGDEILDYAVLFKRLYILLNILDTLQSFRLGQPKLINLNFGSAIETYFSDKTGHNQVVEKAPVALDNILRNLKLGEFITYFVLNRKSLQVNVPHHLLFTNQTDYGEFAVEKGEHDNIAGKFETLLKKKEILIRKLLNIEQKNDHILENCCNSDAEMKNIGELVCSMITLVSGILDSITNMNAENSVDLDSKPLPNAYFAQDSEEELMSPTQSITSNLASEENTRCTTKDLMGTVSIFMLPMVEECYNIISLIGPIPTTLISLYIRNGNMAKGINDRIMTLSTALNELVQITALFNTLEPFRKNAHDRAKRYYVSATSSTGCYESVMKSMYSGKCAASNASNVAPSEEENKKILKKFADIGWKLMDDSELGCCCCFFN
Procedure: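 Universal 'all 10-mer' protein binding microarrays (Agilent AMADID 015681) probed with GST-tagged S. cerevisiae TFs (full-length or DBD) made by in vitro transcription/translation (PURExpress), about 100-200 nM. Bound TF was detected with fluorescent anti-GST. Each ungapped 8-mer (which stands for itself and its reverse complement) is scored by the PBM enrichment score (E-score), a modified Wilcoxon-Mann-Whitney statistic from -0.5 to +0.5, computed with the Universal PBM Analysis Suite. Scale: above 0.35 generally sequence-specific binding.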

Sequence | PBM E-score
TAAGTACA | 0.186
ATCATAAA | 0.174
GGGTCCAA | -0.0689
GGAATAAA | 0.296
CGGACCTA | -0.031
ATAGACTC | -0.157
CAACCTTA | 0.14
CAGACTAC | -0.0744
CTTAATTA | 0.171
CAAGCCAA | 0.0607
GAGTAGCA | 0.104
ACATACGA | 0.168
ATGTTTGC | -0.109
TCGTTCCA | -0.126
ATTAAAGA | 0.327
ACATCGTA | -0.034
AGTACTGG | -0.185
GTGATGGA | -0.0759
TCCGTGCA | 0.0759
TAGTCCAA | -0.0773
AGGCCTGG | -0.29
ACACAGCG | 0.0265
CGTTCCAC | -0.18
ACAGCACG | -0.0318
CGCGTCGA | -0.0154

Sequence | PBM E-score
AAAGGCAC | -0.0183
ACTACTCA | 0.148
ACGTACGT | -0.0529
CGGCCTAG | -0.193
CTAAAACC | 0.0239
ACCGAGCG | -0.0137
ATCATTTC | 0.258
ATACAACG | 0.239
AGTACAAG | 0.0813
AACACCAA | 0.0475
CGTTTGTC | -0.0371
GATTGCCC | -0.214
ACTGCTTC | -0.204
CTAACCAC | -0.00459
AGGACTAG | -0.0235
GATGCACC | -0.0771
GGTCGGTA | -0.287
AGACTGAT | -0.0978
CACTCTGC | -0.0578
CGGGGGCC | -0.414
GTCCGTGA | -0.163
CGTCAAGC | -0.112
CAAGAAGG | 0.00143
AATGTTCA | 0.0556
GTGGACCA | -0.02

Sequence | PBM E-score
CGTCGCGA | -0.0529
ACCTGGCT | -0.0682
AACATGAC | 0.116
TCGGCTCA | -0.227
GCCATGGA | -0.114
GAGTACGA | -0.0231
GCAGTATA | 0.115
AGTCCATC | -0.0562
TATCGGAA | 0.239
CTAGCGAC | -0.00856
AATCCCAG | -0.162
GTGCCCTA | -0.239
GTCGCTTA | -0.0249
ATTTTATG | 0.186
CTACGTGC | -0.201
AGACATAA | 0.128
GCAGAAGA | -0.00072
CCAGTACG | 0.0255
CCGTATAG | -0.0908
GTCTTTAA | 0.184
ACATAGCA | 0.0147
TAGGAATA | 0.194
CTATTTAA | 0.022
ACTGCTCG | 0.0244
AGTCTGAG | -0.207

Sequence | PBM E-score
ATCGCGGG | -0.0312
AGTTAAGG | 0.031
GCGGGGAA | -0.00618
GAAGGCCC | -0.223
CCTTCCCG | -0.177
AGAAAAAG | 0.118
CTGCCAAG | -0.14
AGTCAGGA | -0.142
TCGAGAAA | 0.171
AGGGAAGC | -0.255
TTCAAGAA | 0.296
TCCTAGCA | -0.213
CCGAATGC | 0.00659
GGTTGTAA | 0.0581
CGGGCCGA | -0.294
AAGAGCGG | -0.0071
AGAGCAAT | -0.151
TCACCCGA | -0.08
CACCTTTC | -0.0461
ATATTTAA | 0.372
GACATTGC | -0.0367
CGGTACTC | -0.187
ATGGTCCC | -0.232
GCATAAAC | 0.266
AACATAGT | 0.234

Sequence | PBM E-score
ATAGCTCA | 0.0239
ATCCTGTC | 0.0019
CGGGCCAA | -0.233
CACTAAGA | 0.0394
TCAGACGA | -0.115
AAAAAGAC | 0.162
AGCTGATA | 0.0261
AAGAGGAC | -0.051
CACATCAC | -0.0103
CTAAGTAC | 0.046
CGGTGTCC | -0.198
TGCCCTAA | -0.156
AAGATAAC | 0.0702
ACTTTTTA | 0.242
GCAGCGCC | -0.098
ACGTAGCT | 0.0287
GGCGTGTA | -0.0896
ATCGTAAA | 0.122
GCAACGCA | -0.217
CTGGGTGA | 0.0117
AATGGCGC | -0.104
AAGGTGGA | -0.0199
CGGTAAAC | -0.0859
ATGCCAAA | -0.0597
CGATTACA | -0.0785

Sequence | PBM E-score
AGACATCG | -0.221
ATCCTGAA | 0.228
CACAGCAA | 0.208
ACTGCTAT | 0.0319
GTCCCCGA | -0.131
CGACTCAA | 0.145
CGACGTAA | 0.0182
ACCGGTAT | -0.0774
GCGCAAGC | 0.0122
ACACCAGC | -0.188
ACGCTTAA | 0.0404
TAGACTCA | 0.0118
ACTCGGTC | 0.05
TACCATCA | -0.0367
ATAATAAA | 0.366
AGGGGACC | -0.357
CGCTTTGA | 0.0154
ACTAGTCC | -0.11
ATTAGTTG | 0.265
GCCTACTA | 0.167
CTAATACC | 0.0943
AACTCGCG | 0.139
GGGTAAGA | -0.154
AAAAACCT | 0.307
CTGCCCGA | -0.19

Sequence | PBM E-score
AAATCGGC | -0.158
CGGTGACC | -0.24
AGCAACCA | 0.0811
AGTATTAG | 0.174
AGGGCCTG | -0.306
ATTGCCTG | 0.095
GAACATTA | 0.232
CACGGATG | -0.0223
AACTGATG | -0.0152
CCATCACA | -0.0678
AAGCGCCC | -0.246
AAAGGGTA | 0.0261
CAAGGGGA | -0.125
TCAAATCA | 0.192
CGAGTCTA | -0.286
CGGACAGC | -0.0522
CCGAGAGA | -0.0112
AGTTATAT | 0.199
AACTCATA | 0.227
ACGCGCGA | 0.0738
GTACGAAA | 0.0675
GAACTATA | 0.227
